The source of these data is US20250388663A1 (INSTITUT NATIONAL DE LA SANT ET DE LA RECHERCHE M DICALE, published 2025).

In assay [1] the target is T1, human von Willebrand factor (human, UniProt P04275 764-2813).
T1 construct: also called VWF; human VWF
Put plainly: control immunosorbent assays.

For assay [2], the target named is T2, human serum albumin (human, UniProt P02768).
T2 construct: also called HSA; human albumin
Put plainly: bridging immunosorbent assay: albumin coated, KB-V13A12 200 nM, VWF 0-6 microgram/ml, anti-VWF detection.

Another assay has as its target T3, mouse serum albumin (mouse, UniProt P07724 25-608).
T3 construct: also called MSA; murine serum albumin
The description is as above.

Assay [3] has as its target T2, human serum albumin. Put plainly: bridging immunosorbent assay: HSA coated, KB-FXE3A12 100 nM, factor X 0-6 microgram/ml, anti-factor X detection.
The target of a further assay is T4, human factor IX (human, UniProt P00740 47-461).
T4 construct: also called coagulation factor IX
Put plainly: bridging ELISA: HSA-coated wells, KB-F9D9A12 at 100 nM, factor IX titrated in 2.5 mM CaCl2, anti-factor IX-HRP detection. On the technique in general: An ELISA detects its analyte on a solid surface through an enzyme-linked reagent.

Assay [4] has as its target T2, human serum albumin. Put plainly: bridging immunosorbent assay: HSA coated, KB-F9D9A12 100 nM, factor IX 0-12 microgram/ml, 2.5 mM CaCl2, anti-factor IX detection.
Assay [5] has as its target T2, human serum albumin. Put plainly: bridging immunosorbent assay: HSA coated, KB-AT01A12 100 nM, antithrombin 0-6 microgram/ml, incubations at pH 5.6 or 7.4, anti-antithrombin detection.
A further assay has as its target T5, human antithrombin (human, UniProt P01008).
T5 construct: also called SERPIN C1
Put plainly: bridging ELISA: HSA-coated wells, KB-AT01A12 at 100 nM, antithrombin titrated, then three 20 min incubations at pH 7.4, anti-antithrombin-HRP detection.

Chain of human antithrombin (P01008 33-464 limits assumed): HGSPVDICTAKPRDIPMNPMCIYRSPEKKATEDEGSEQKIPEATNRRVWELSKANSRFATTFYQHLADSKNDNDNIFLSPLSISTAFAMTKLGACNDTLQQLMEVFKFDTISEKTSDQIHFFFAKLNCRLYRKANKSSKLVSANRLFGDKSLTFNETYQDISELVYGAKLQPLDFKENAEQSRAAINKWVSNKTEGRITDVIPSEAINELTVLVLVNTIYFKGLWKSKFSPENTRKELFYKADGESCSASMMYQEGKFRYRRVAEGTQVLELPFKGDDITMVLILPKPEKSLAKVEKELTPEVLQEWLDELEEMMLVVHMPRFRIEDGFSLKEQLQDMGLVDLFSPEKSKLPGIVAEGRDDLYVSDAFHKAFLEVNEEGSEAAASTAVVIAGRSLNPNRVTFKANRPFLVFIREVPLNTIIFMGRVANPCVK

B1: KB-V80A12 (bispecific antibody)
chain: QVQLVQSGGGLVQAGGSLKLSCAASGRTFSDYAMGWFRQAPGKERDFVASISRSGGRLSYADSVKGRFTISRDNAKNTVYLQMNSLKPEDTAVYYCAARTNWNPPRPLPEEYNYWGQGTQVTVSSAAAGGGSGGGSGGGSGGGS[about 120 residues omitted here]
notes: also called KB-VWF-080 fused to OptiAlb-12; not shown: C-terminal histidine and cMyc-tag from the pHEN6 plasmid
With B1, the binding result in assay [1] is recorded as “binds”.

B2: KB-V13A12 (bispecific antibody)
chain: QVQLVQSGGGLVQAGDSLRLSCAASGRTFIRYAMAWFRQAPGKEREFVAAIPQSGGRSYYADSVKGRFTISRDNAKNTVYLQMNSLKPEDTAVYSCAATSTYYGRSAYSSHSGGYDYWGQGTQVTVSSAAAGGGSGGGSGGGSGGGS[about 120 residues omitted here]
notes: Bispecific single-domain antibody: anti-VWF D'D3 sdAb KB-VWF-013, linker, anti-albumin sdAb OptiAlb-12; also called KB-VWF-013 fused to OptiAlb-12; not shown: C-terminal histidine and cMyc-tag from the pHEN6 plasmid
Turning to B2, the binding result with human serum albumin [2] and in the assay with mouse serum albumin was “binds” each time.

B3: KB-FXE3A12 (bispecific antibody)
chain: QVQLQESGGGLVQAGGSLRLSCAASGSISRGDLMAWFRQAPGKERELVATITPGANTYYADSVKGRFTISRDNTKNTMYLQMNSLKPEDTAVYFCAAASGKGPGRGRKHKYWGQGTQVTVSSAAAGGGSGGGSGGGSGGGS[about 120 residues omitted here]
notes: also called KB-X3A12; KB-FX-E3 fused to OptiAlb-12; not shown: C-terminal histidine and cMyc-tag from the pHEN6 plasmid
With B3, the binding result in the assay with human serum albumin [3] is listed as “binds”.

B4: KB-F9D9A12 (bispecific antibody)
chain: QVQLVQSGGGLVQPGGSLKLSCAASGLIFSFNALGWYRQAPGKQRELVAHITSGGSTNYADSVKGRFTISRDNVKKTAFLQMNSLKPEDTAVYYCRSSQSGVEYWGQGTQVTVSSAAAGGGSGGGSGGGSGGGS[about 120 residues omitted here]
notes: also called KB-F9-D9 fused to OptiAlb-12; KB-FIX-D9 fused to OptiAlb-12; not shown: C-terminal histidine and cMyc-tag from the pHEN6 plasmid
For the molecule B4, the binding result with human factor IX and with human serum albumin [4] was “binds” each time.

B5: KB-AT01A12 (bispecific antibody)
chain: QVQLVQSGGGLVQAGGSLRLSCAASGRTFRNYVMGWFRQAPGKDPEFIAGINRSGAITYYGDSVKGRFTISRDNAKNTVSLQMNSLEPEDTAVYYCAAGETTWSIRRDDYDYWGQGTQVTVSSAAAGGGSGGGSGGGSGGGS[about 120 residues omitted here]
notes: also called KB-AT-01 fused to OptiAlb-12; not shown: C-terminal histidine and cMyc-tag from the pHEN6 plasmid
On to B5, for which the binding result with human serum albumin [5] and in the assay with human antithrombin was “binds” throughout.
